11 proteins from the supplement of paper PMC11876631 can be followed below.

The series has as its target Escherichia coli (laboratory strain). Briefly: barcode share on antibiotic plates over drug-free plates; higher = less susceptible. How it is done:
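A pool of E. coli strains, each edited to carry one amino-acid change in an essential protein, was grown for 48 h on minimal glucose agar with or without antibiotic; strain barcodes were sequenced; mean of two replicates.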

Where [1] appears, read: antibiotic: carbenicillin, 2× MIC (3.1 µg/mL).
Setting [2] is: antibiotic: gentamicin, 2× MIC (MIC 0.45 µg/mL).

Residue numbers refer to the chain shown, from its start. In names and notes the source's numbering stands. ± gives the standard deviation of the averaged measurements. Laboratory Escherichia coli strains with one amino-acid change in an essential protein, pooled on minimal glucose agar with carbenicillin or gentamicin at twice the control MIC (plus kanamycin and chloramphenicol for the plasmids), 48 h. Fold change of barcode share against drug-free plates; higher = less susceptible. Active = above 20 in both replicates (the paper's putatively resistant). '<' = one read or none on drug, '>' = one read or none on a drug-free plate. Shares are relative, so most strains fall below 1 when a few take over. Listed are strains with at least 15 reads on both drug-free plates, and hits; most hits rest on fewer reference reads. Replicate rank correlation about 0.5. Edits are read from barcodes. Where only a bound is given, the exact number is not on record here.

B1: purA I107A (protein)
chain: MGNNVVVLGTQWGDEGKGKIVDLLTERAKYVVRYQGGHNAGHTLVINGEKTVLHLIPSGILRENVTSIIGNGVVLSPAALMKEMKELEDRGIPVRERLLLSEACPLALDYHVALDNAREKARGAKAIGTTGRGIGPAYEDKVARRGLRVGDLFDKETFAEKLKEVMEYHNFQLVNYYKAEAVDYQKVLDDTMAVADILTSMVVDVSDLLDQARQRGDFVMFEGAQGTLLDIDHGTYPYVTSSNTTAGGVATGSGLGPRYVDYVLGILKAYSTRVGAGPFPTELFDETGEFLCKQGNEFGATTGRRRRTGWLDTVAVRRAVQLNSLSGFCLTKLDVLDGLKEVKLCVAYRMPDGREVTTTPLAADDWKGVEPIYETMPGWSESTFGVKDRSGLPQAALNYIKRIEELTGVPIDIISTGPDRTETMILRDPFDA
Regarding B1, the “fold change of barcode share” value is 0.321 ± 0.15 under setting [1] and under 0.018 under setting [2].

B2: purA L75W (protein)
chain: B1 chain with L75W, A107I
With B2, the “fold change of barcode share” value under setting [1] is 136 [active].

B3: purA L75A (protein)
chain: B1 chain with L75A, A107I
Regarding B3, the “fold change of barcode share” value reads like this: under setting [1], 0.366 ± 0.016; under setting [2], 0.128 ± 0.019.

B4: purA F328A (protein)
chain: B1 chain with A107I, F328A
Consider B4, for which the “fold change of barcode share” value by setting is: under setting [1], 0.323 ± 0.041; under setting [2], under 0.00127.

B5: purA F328W (protein)
chain: B1 chain with A107I, F328W
With B5, the “fold change of barcode share” value stood at 0.674 ± 0.45 under setting [1] and 0.00276 ± 0.00097 under setting [2].

B6: purA L267D (protein)
chain: B1 chain with A107I, L267D
Consider B6, for which the “fold change of barcode share” value under setting [1] was 204 [active].

B7: purA L267A (protein)
chain: B1 chain with A107I, L267A
With B7, the “fold change of barcode share” value runs as follows: under setting [1], 0.399 ± 0.1; under setting [2], 0.00931 ± 0.0092.

B8: purA L267W (protein)
chain: B1 chain with A107I, L267W
On to B8, for which the “fold change of barcode share” value under setting [1] came to 0.321 ± 0.085 and the “fold change of barcode share” value under setting [2] was under 0.00835.

B9: purA L267Q (protein)
chain: B1 chain with A107I, L267Q
B9: the “fold change of barcode share” value is 0.455 ± 0.1 under setting [1] and 0.0088 ± 0.0057 under setting [2].

B10: purA F328Q (protein)
chain: B1 chain with A107I, F328Q
With B10, the “fold change of barcode share” value under setting [1] came to 0.399 ± 0.0066 and the “fold change of barcode share” value under setting [2] is 0.00551 ± 0.0014.

B11: purA F328P (protein)
chain: B1 chain with A107I, F328P
Turning to B11, the “fold change of barcode share” value under setting [1] was > 37.9 [active].
